This is an account of results in article PMC4336329 (PLoS ONE, 2015).

Out of some 310,000 compounds screened, about 14,000 (4.5%) showed an effect of 50% or more. Effects have a minus sign here. This is one part of the list.
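Note: peak tail current of the secondary pulse compared with the same well before compound.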

For this assay, the target named is human ether-à-go-go-related gene (hERG) potassium channel (human, UniProt Q12809). The assay can be described thus: primary screen, population patch clamp on CHO cells stably expressing hERG.
Sequence of human ether-à-go-go-related gene (hERG) potassium channel (Q12809 whole entry, looked up): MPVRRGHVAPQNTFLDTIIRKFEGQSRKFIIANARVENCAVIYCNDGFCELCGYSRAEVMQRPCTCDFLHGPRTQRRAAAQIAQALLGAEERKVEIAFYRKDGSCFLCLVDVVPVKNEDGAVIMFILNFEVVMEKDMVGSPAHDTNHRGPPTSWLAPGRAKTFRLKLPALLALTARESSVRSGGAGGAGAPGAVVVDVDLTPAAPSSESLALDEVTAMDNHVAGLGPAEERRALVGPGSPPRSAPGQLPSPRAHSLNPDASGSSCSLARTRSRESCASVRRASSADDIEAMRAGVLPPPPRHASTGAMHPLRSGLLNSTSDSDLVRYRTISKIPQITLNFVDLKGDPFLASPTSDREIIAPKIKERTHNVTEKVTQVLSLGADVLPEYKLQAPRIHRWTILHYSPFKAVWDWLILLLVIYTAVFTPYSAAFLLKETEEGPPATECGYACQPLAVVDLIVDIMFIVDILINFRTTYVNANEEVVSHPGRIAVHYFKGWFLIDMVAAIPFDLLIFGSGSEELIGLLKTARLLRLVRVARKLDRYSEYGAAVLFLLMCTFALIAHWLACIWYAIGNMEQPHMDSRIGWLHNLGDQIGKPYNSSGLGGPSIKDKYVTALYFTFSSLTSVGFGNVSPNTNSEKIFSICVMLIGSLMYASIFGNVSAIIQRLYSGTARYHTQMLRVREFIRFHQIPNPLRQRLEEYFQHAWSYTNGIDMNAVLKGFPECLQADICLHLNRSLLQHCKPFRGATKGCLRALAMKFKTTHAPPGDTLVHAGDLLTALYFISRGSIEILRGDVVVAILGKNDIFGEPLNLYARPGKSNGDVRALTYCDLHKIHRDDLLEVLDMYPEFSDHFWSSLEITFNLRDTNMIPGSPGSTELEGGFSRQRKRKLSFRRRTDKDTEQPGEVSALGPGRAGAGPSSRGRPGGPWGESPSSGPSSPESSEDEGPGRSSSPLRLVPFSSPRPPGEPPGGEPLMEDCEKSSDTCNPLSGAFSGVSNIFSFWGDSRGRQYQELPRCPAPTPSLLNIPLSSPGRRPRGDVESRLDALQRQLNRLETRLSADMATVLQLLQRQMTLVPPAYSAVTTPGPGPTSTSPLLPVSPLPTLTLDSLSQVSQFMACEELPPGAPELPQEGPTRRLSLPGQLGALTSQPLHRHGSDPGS
Turning to `Cc1ccc(C)c(SCC(=O)NC(=O)Nc2ccc3c(c2)OCCO3)c1`, the “hERG current change (%, negative = inhibition) at 10uM” value is given as -1.6%. `CC1C(=O)Nc2ccc(S(=O)(=O)N3CCCCCC3)cc21` (stereo not drawn): the “hERG current change (%, negative = inhibition) at 10uM” value is -1.68%. Consider `Cc1cccc(CSc2nc3ccccc3c(=O)n2C)c1`, for which the “hERG current change (%, negative = inhibition) at 10uM” value is on record as 3.75%. Consider `CCN(CC)S(=O)(=O)c1ccc(NC(=O)CN(c2cccc(F)c2)S(C)(=O)=O)cc1`, for which the “hERG current change (%, negative = inhibition) at 10uM” value is on record as -3.73%. To `Cc1cc(Cl)ccc1OC(C)C(=O)Nc1ccc(C(=O)Nc2ccccc2C(=O)O)cc1` (stereo not drawn) belongs 16%; to `O=C(O)c1ccc2c3c(ncnc13)-c1ccccc1C2=O`, -8.87%; to `CCCc1ccc(C(=O)NNc2ccccc2F)cc1`, 2.3%. The same measure for `Cc1cc(=O)oc2c(C)c(OC(=O)c3ccco3)ccc12`: -8.69%. To `COc1ccc(C(=O)Oc2ccc(Br)cc2C(=S)N2CCOCC2)cc1` belongs -0.284%. Consider `COc1ccc(NC(=O)c2ccco2)c(NC(=O)Cc2cccs2)c1`, for which the “hERG current change (%, negative = inhibition) at 10uM” value is on record as 3.62%.

In the case of `O=C(N/N=C/c1ccc(N2CCOCC2)cc1)C1COc2ccccc2O1` (stereo not drawn), the “hERG current change (%, negative = inhibition) at 10uM” value is given as -15.5%.

As for `COc1ccccc1N(C)S(=O)(=O)c1ccc(C(=O)O)cc1`, the “hERG current change (%, negative = inhibition) at 10uM” value is given as 16%. The same measure for `Cc1cc(-c2ccc(C)c(S(=O)(=O)NCC3CCN(Cc4cccc(F)c4)CC3)c2)on1`: -39.1%. For `COc1ccccc1CNC(=O)COC(=O)c1cccc(S(=O)(=O)N2CCOCC2)c1`, the “hERG current change (%, negative = inhibition) at 10uM” value is listed as -35.5%. The same measure for `COC(=O)COc1ccc(S(=O)(=O)N2CCN(c3ccccc3)CC2)cc1`: 25.3%. On to `O=C(O)c1ccccc1Sc1ccccc1S(=O)(=O)NC1CCCCC1`, for which the “hERG current change (%, negative = inhibition) at 10uM” value was found to be 20.4%. The same measure for `COc1ccc(C(=O)C2CCCCC2=O)cc1` (stereo not drawn): 9.71%.

In the case of `CC1(C)Cc2cccc(Oc3ccc(S(=O)(=O)N4CCCCC4)cn3)c2O1`, the “hERG current change (%, negative = inhibition) at 10uM” value was -33.1%. To `CCN(CC)c1ccc(NC(=O)c2cccc(C)c2)cc1S(=O)(=O)Nc1ccccc1OC` belongs 10.7%; to `CC(C)[C@H](NS(=O)(=O)c1ccc2c(c1)OCCO2)C(=O)OCC(=O)Nc1cccc(Cl)c1Cl`, -9.56%; to `CCN(CC)S(=O)(=O)c1ccc(N2CC(C(=O)NCc3ccc4c(c3)OCO4)CC2=O)cc1` (stereo not drawn), -7.88%.

In the case of `O=C(O)C(Oc1ccc2c3c(c(=O)oc2c1)CCC3)c1ccccc1` (stereo not drawn), the “hERG current change (%, negative = inhibition) at 10uM” value is listed as -12.7%. For the molecule `Cc1cc(C(=O)NNC(=O)c2c(-c3c(Cl)cccc3Cl)noc2C)no1`, the “hERG current change (%, negative = inhibition) at 10uM” value was 15.5%. Take `Cc1ccccc1CN1CCN(c2ccc(S(=O)(=O)N3CCCC3)cn2)CC1`: the “hERG current change (%, negative = inhibition) at 10uM” value is recorded as -8.46%.

On to `COc1ccc(/C(C)=N/NC(=O)c2nnn(-c3nonc3N)c2-c2cccs2)cc1OC`, for which the “hERG current change (%, negative = inhibition) at 10uM” value is recorded as 6.89%. Consider `O=C(Nc1ccc(S(=O)(=O)NC2=NCCCCC2)cc1)c1ccc(=O)[nH]c1`, for which the “hERG current change (%, negative = inhibition) at 10uM” value was determined as 19.4%.

Regarding `O=C(NC(CCl)c1ccccc1)c1ccc(Cl)cc1` (stereo not drawn), the “hERG current change (%, negative = inhibition) at 10uM” value was -10.7%. The same measure for `COc1cccc(-c2cc(=O)c3cc(NC(=O)c4ccc(N(C)C)cc4)ccc3[nH]2)c1`: 16.2%; for `CCCCC1C2C(=O)N(c3ccc(C)cc3)C(=O)C2ON1c1ccccc1` (stereo not drawn): 3.04%; for `CN(CCCNC(=O)c1cc2c(=O)[nH]c3ccccc3c2n1C)Cc1ccccc1`: -29%. `CCOC(=O)c1sc(Nc2ccc(Br)cc2)nc1C`: the “hERG current change (%, negative = inhibition) at 10uM” value worked out at 13.7%. The same measure for `Clc1ccc(CN(Cc2ccc(Cl)cc2)c2nn[nH]n2)cc1`: -3.21%; for `O=C(c1cccs1)N(Cc1nc2sc3c(c2c(=O)[nH]1)CCCC3)C1CCCC1`: -9.55%. Consider `COc1ccc(C(CNC(=O)COc2ccc(Br)cc2F)N2CCCC2)cc1` (stereo not drawn), for which the “hERG current change (%, negative = inhibition) at 10uM” value is given as -78.6%. `CCc1sc(C(=O)NCc2ccco2)cc1Br`: the “hERG current change (%, negative = inhibition) at 10uM” value is on record as -1.93%.

Consider `Cc1c(C(=O)N2CCOCC2)c(S(=O)(=O)Nc2ccc(C(C)C)cc2)c(C)n1C`, for which the “hERG current change (%, negative = inhibition) at 10uM” value is given as 8.96%. The same measure for `COc1ccc(OCCC(=O)Nc2cc(C)on2)cc1`: 4.61%. For `COC(=O)c1[nH]c2cc(C)ccc2c1NC(=O)CN1CCOCC1`, the “hERG current change (%, negative = inhibition) at 10uM” value is given as -14.2%. The same measure for `CC(C)Cc1nnc(NC(=O)c2ccc3c(c2)OCCO3)s1`: -6.6%; for `CC(C)(C)c1nnc2sc(SCC(=O)N3CCCc4ccccc43)nn2c1=O`: -43.2%; for `Cc1ccc(OCCC(=O)Nc2ccc(S(=O)(=O)N3CCCC3)cc2)cc1`: -6.23%. With `CCOc1ccc(N2CC(C(=O)NCc3ccc4c(c3)OCO4)CC2=O)cc1` (stereo not drawn), the “hERG current change (%, negative = inhibition) at 10uM” value is given as -27%.

Consider `COc1ccc2nc(NC(=O)C3CCCN(S(=O)(=O)c4cccc5nonc45)C3)sc2c1` (stereo not drawn), for which the “hERG current change (%, negative = inhibition) at 10uM” value turned out to be 14.2%.

Regarding `COc1ccc(CCNC(=O)CN(c2ccc(OC)c(OC)c2)S(=O)(=O)c2ccc(C)cc2)cc1`, the “hERG current change (%, negative = inhibition) at 10uM” value was 8.72%. To `COc1ccc(-c2nnc(SC(C(=O)c3c[nH]c4ccccc34)c3ccccc3)n2N)cc1OC` (stereo not drawn) belongs 2.03%.

Consider `CCC1(c2ccccc2)NC(=O)N(CC(=O)NNC(=O)c2ccoc2C)C1=O` (stereo not drawn), for which the “hERG current change (%, negative = inhibition) at 10uM” value came to 16.3%.

In the case of `Nc1ccnc(=O)[nH]1`, the “hERG current change (%, negative = inhibition) at 10uM” value turned out to be 16.3%. Turning to `CCNC(=S)N(C)CCc1cc2c(c(OC)c1C=C1C(=O)N(C)C(=O)N(C)C1=O)OCO2`, the “hERG current change (%, negative = inhibition) at 10uM” value turned out to be 20.5%.

For `Cc1cc(C(=O)OCC(=O)Nc2ccc(F)cc2)c(C)o1`, the “hERG current change (%, negative = inhibition) at 10uM” value is listed as -9.88%. As for `CCC(=NCc1ccco1)c1c(C(F)(F)F)[nH]n(-c2nc3ccccc3s2)c1=O`, the “hERG current change (%, negative = inhibition) at 10uM” value is reported as -2.61%. As to `CCOCCn1c(=NC(=O)c2cc3ccccc3oc2=O)sc2cc(S(N)(=O)=O)ccc21`, the “hERG current change (%, negative = inhibition) at 10uM” value is -44.4%. For the molecule `O=C1NCCCCC1NS(=O)(=O)c1ccccc1` (stereo not drawn), the “hERG current change (%, negative = inhibition) at 10uM” value is 31.7%. The same measure for `Cc1cc(/C=N/n2cnnc2)c(C)n1-c1ccc(OCc2ccc(Cl)cc2Cl)cc1`: 16.4%; for `CC1CC(=O)C2=C(C1)Nc1ccccc1N=C2` (stereo not drawn): -4.46%; for `Cn1c(CCNC(=O)c2ccco2)nc2cc([N+](=O)[O-])ccc21`: -26%. To `COc1cc(S(=O)(=O)N2CCN(c3ccccc3F)CC2)c(OC)cc1Cl` belongs -3.76%; to `CCN1CCN(S(=O)(=O)c2ccc(Cl)c(C(=O)Nc3ccc(OC(F)F)cc3)c2)CC1`, -70.4%; to `O=C(O)c1ccc(S(=O)(=O)c2ccc(Sc3ccc(C(=O)O)c(C(=O)O)c3)cc2)cc1`, 23.3%.

For `CCn1c(COc2ccccc2C(N)=O)nc2ccccc21`, the “hERG current change (%, negative = inhibition) at 10uM” value came to 12.2%. Turning to `O=C(Cc1ccc(Cl)cc1)Nc1ccccc1C(=O)N1CCCCC1`, the “hERG current change (%, negative = inhibition) at 10uM” value was -8.16%. To `Cc1ccccc1Cn1nc(C)c(NC(=O)c2nc3n(n2)C(C(F)F)CC(C)N3)c1C` (stereo not drawn) belongs 0.0862%; to `CCOc1ccc(/C=N/Nc2cc(C)nc(N3CCOCC3)n2)cc1`, 3.47%; to `Cc1ccccc1-n1ncc2c1CC(C)(C)CC2NC(=O)CCN1CCCCC1=O` (stereo not drawn), 13.2%.

With `CCOP(=O)(OCC)C(Nc1cccc([N+](=O)[O-])c1)c1ccc(OC)cc1` (stereo not drawn), the “hERG current change (%, negative = inhibition) at 10uM” value is reported as -5.2%. For `O=C(COC(=O)c1cncc(Br)c1)NCc1ccc(Cl)cc1`, the “hERG current change (%, negative = inhibition) at 10uM” value was found to be 14.8%. For `CCC(C)c1ccccc1NC(=O)CN(C)CC(=O)Nc1ccccc1SC` (stereo not drawn), the “hERG current change (%, negative = inhibition) at 10uM” value was 1.51%.

On to `O=C(c1ccc(S(=O)(=O)NCc2ccco2)cc1)N1CCN(c2ccc(F)cc2)CC1`, for which the “hERG current change (%, negative = inhibition) at 10uM” value is given as -31.5%. The same measure for `Cc1nn(CC(=O)N2CCC(C)CC2)c(=O)c2cccn12`: 24.1%. The same measure for `Cc1cc(CSCc2ccc(Cl)cc2)no1`: 7.83%; for `CCOC(=O)[C@H]1[C@H]2COc3ccccc3[C@@H]2N2C(=O)c3ccccc3NC(=O)[C@@]12C`: -6.47%; for `CN(C)c1ccc(C2Nc3ccccc3C(=O)N2NS(C)(=O)=O)cc1` (stereo not drawn): 14.2%. To `CCOc1ccc(CC2CC(=O)NC2=O)cc1` (stereo not drawn) belongs 12.5%; to `CCOc1ccccc1-n1c(O)c(C=Nc2ccc(N(CC)CC)cc2)c(=O)[nH]c1=O`, -0.709%; to `O=C(NN1CCOCC1)c1cc(Cl)ccc1Cl`, 14.9%. For the molecule `Nc1nonc1C(=O)NCCNC(=O)c1cccs1`, the “hERG current change (%, negative = inhibition) at 10uM” value is reported as -58.7%. In the case of `Cc1ccc2[nH]c(=O)c(CN(C)C(=O)c3ccccn3)cc2c1`, the “hERG current change (%, negative = inhibition) at 10uM” value is 5.92%.

With `O=C(COC(=O)C1CCN(S(=O)(=O)c2ccccc2)CC1)NCCc1ccccc1`, the “hERG current change (%, negative = inhibition) at 10uM” value is -0.193%. Regarding `COC(=O)C1C2c3ccccc3C(c3ccccc32)C1C(=O)OC` (stereo not drawn), the “hERG current change (%, negative = inhibition) at 10uM” value was found to be 10.5%. The same measure for `COCCNC(=O)CN(C(=O)CCC(=O)Nc1nccs1)c1ccc2c(c1)OCO2`: 7.83%; for `N#CCCn1cc(C=C(C#N)C#N)c(-c2ccc(-c3ccccc3)cc2)n1`: -1.48%. On to `COc1ccc(CCNC(=O)C2CCC(C(C)(C)C)CC2)cc1OC` (stereo not drawn), for which the “hERG current change (%, negative = inhibition) at 10uM” value is on record as -2.46%.

In the case of `CN1C(=O)C(O)(CC(=O)c2ccncc2)c2ccccc21` (stereo not drawn), the “hERG current change (%, negative = inhibition) at 10uM” value is reported as 4.7%.

Regarding `C/C(=N/NC(=O)c1ccccc1)C1=C(O)CC(C)(C)CC1=O`, the “hERG current change (%, negative = inhibition) at 10uM” value is recorded as 15%. The same measure for `CN(C)C(=O)C1Cc2ccccc2CN1S(=O)(=O)c1ccc(F)cc1` (stereo not drawn): 15.2%. On to `COc1ccc(NC(=O)C(Br)C(C)C)cc1` (stereo not drawn), for which the “hERG current change (%, negative = inhibition) at 10uM” value was 25%. The same measure for `COc1ccc2cc(S(=O)(=O)N3CCCC3)ccc2c1`: 10.2%; for `CC(=O)c1sc(Nc2cccc(C)c2)nc1C`: -4.43%.
